From paper PMC4336329 (PLoS ONE, 2015)
Out of some 310,000 compounds screened, about 14,000 (4.5%) showed an effect of 50% or more. The effect is printed as a negative number. Some of the results follow.

These compounds were tested against human ether-à-go-go-related gene (hERG) potassium channel (human, UniProt Q12809) (assay: primary screen, population patch clamp on CHO cells stably expressing hERG).
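Also: peak tail current of the secondary pulse compared with the same well before compound.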

Chain of human ether-à-go-go-related gene (hERG) potassium channel (Q12809 whole entry, looked up): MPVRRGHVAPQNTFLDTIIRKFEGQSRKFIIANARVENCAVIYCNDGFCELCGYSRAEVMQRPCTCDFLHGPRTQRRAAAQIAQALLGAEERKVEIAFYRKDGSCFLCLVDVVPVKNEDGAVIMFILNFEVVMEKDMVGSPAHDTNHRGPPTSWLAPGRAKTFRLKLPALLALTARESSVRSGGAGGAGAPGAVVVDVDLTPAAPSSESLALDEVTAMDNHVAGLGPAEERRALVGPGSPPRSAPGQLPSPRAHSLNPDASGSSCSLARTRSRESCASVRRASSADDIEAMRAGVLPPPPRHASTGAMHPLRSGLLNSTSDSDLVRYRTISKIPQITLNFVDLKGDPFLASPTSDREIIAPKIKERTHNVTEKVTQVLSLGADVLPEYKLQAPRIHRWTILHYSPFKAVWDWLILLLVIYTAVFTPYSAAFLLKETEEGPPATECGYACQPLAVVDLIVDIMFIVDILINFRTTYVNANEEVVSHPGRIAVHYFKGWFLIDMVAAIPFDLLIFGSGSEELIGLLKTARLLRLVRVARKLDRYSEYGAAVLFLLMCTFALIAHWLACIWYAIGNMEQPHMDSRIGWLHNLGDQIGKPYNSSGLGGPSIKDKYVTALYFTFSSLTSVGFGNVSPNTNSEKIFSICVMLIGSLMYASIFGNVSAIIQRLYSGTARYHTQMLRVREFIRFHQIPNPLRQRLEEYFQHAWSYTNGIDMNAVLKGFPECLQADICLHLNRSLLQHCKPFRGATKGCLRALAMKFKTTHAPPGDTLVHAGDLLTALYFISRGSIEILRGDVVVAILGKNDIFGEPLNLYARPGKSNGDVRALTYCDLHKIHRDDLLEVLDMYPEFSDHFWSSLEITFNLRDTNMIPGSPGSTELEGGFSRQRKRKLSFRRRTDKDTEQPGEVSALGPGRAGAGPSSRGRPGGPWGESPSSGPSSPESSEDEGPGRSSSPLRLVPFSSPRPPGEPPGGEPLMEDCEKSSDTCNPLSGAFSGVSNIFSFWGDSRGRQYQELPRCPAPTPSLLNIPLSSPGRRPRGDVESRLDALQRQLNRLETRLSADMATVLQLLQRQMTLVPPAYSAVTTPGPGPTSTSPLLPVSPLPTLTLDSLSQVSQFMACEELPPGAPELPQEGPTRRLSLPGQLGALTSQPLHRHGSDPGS

| Compound | hERG current change (%, negative = inhibition) at 10uM [%] |
| --- | --- |
| Cc1cccc(NC(=O)[C@H](NC(=O)[C@@H]2Cc3ccccc3CN2)c2ccccc2)c1 | -54.4 |
| CCO[C@@H]1OC(C(=O)O)=C[C@H](C)[C@H]1CCCO | 20.7 |
| CC(NC(=O)c1ccccc1Br)c1nnc(SCc2ccc([N+](=O)[O-])cc2)n1C (stereo not drawn) | -28.4 |
| Cn1nc(C(F)(F)F)c(C(=O)Nc2ccc(C(F)(F)F)cc2)c1Cl | -8.92 |
| CCN(CC)c1nc(Nc2ccc([N+](=O)[O-])cc2)nc(N(CC)CC)n1 | 11.1 |
| CC(C)NC(=O)COC(=O)c1ccc(S(=O)(=O)N2CCCC2)cc1 | 21.1 |
| CCOC(=O)Cn1c(CN2CC(C)OC(C)C2)nc2c1c(=O)n(C)c(=O)n2C (stereo not drawn) | 22.2 |
| Cc1ccc(NC(=O)c2cc(NC(=O)CCCC(=O)O)ccc2Cl)cc1Cl | 21.3 |
| Cc1ccc(C(=O)Nc2nc(C(C)(C)C)cs2)s1 | -42.4 |
| COc1cc(OC)cc(-c2c(-c3ccc(F)cc3)c3cc(-c4ccc5[nH]ccc5c4)ccc3n2C)c1 | 9.57 |
| CC(=O)Nc1ccc(-c2csc(NCc3ccco3)n2)cc1 | 3.3 |
| CCOc1ccccc1C(=O)NCC(=O)N1CCN(Cc2ccc3c(c2)OCO3)CC1 | -17.3 |
| CC(=O)c1c(C(C)=O)c(C)n(Cc2ccc(Cl)cc2)c1C | -14.5 |
| CCOc1cccc(C2C(C(=O)c3ccc(C)o3)=C(O)C(=O)N2Cc2ccncc2)c1 (stereo not drawn) | 9.8 |
| O=C(NCc1ccccc1)C1CCN(c2nc(-c3ccccc3)nc3c2CCC3)CC1 | -24.3 |
| CCCCN(CCCC)CCCNC(=O)c1ccc2nc(-c3ccccc3NC(C)=O)c(=O)[nH]c2c1 | 2.39 |
| CCCCCCC1CC(C)(C(=O)C[NH2+]c2nncs2)OC1=O.[Br-] (stereo not drawn) | -66.3 |
| Nc1nccnc1C(=O)OCC(=O)NCCc1ccc(S(N)(=O)=O)cc1 | 11.1 |
| COc1ccc(OC)c(-c2csc3nnc(SCC(=O)Nc4ccc(NC(C)=O)cc4)n23)c1 | 2.89 |

| Compound | hERG current change (%, negative = inhibition) at 10uM [%] |
| --- | --- |
| O=C(NCCc1ccc(F)cc1)c1cc(=O)c2ccccc2o1 | 0.701 |
| Cc1ccc(C2=NN(C)c3nc4ccccc4n3C2)cc1 | 6.76 |
| C/C(=N\NC(=O)c1cccc(S(=O)(=O)Nc2cccc(Cl)c2)c1)c1cccs1 | 5.27 |
| CCOC(=O)c1ccc(N=Nc2c(C)[nH]n(-c3ccccc3)c2=O)cc1 | 16.1 |
| C=C(C)Cn1c(C(C)NC(=O)CCC)nc2ccccc21 (stereo not drawn) | 13.1 |
| O=C(O)C(=O)O.Oc1ccccc1NCC(O)Cn1ccc2ccccc21 (stereo not drawn) | 13.4 |
| Cc1cccc(N2CCN(C(=O)CCC(=O)N3CC(C)Oc4ccccc43)CC2)c1C (stereo not drawn) | -13 |
| CCCN(CCC)C(=O)CSc1nc2c(sc(=S)n2-c2ccc(OCC)cc2)c(=O)[nH]1 | -1.18 |
| Cn1cc(CN2CCCCC2C(=O)Nc2ccc(-n3cccn3)cc2)cn1 (stereo not drawn) | 10.3 |
| CCC1(C)CC(CCN(Cc2ccco2)C(C)=O)(c2ccccc2)CCO1 (stereo not drawn) | -6.78 |
| CCOC(=O)NCc1ccc(S(=O)(=O)Nc2ccccc2C)cc1 | -37.9 |
| Cn1cc(C(=O)C(=O)N2CCN(c3ccccc3)CC2)c2ccccc21 | 0.853 |
| Cc1cccc(N2CCN(C(=O)NCc3ccc(F)cc3)CC2)c1C | 0.166 |
| O=C(CC1S/C(=N/N=C/c2ccco2)NC1=O)Nc1ccccc1 (stereo not drawn) | 14.4 |
| CCN(CC)S(=O)(=O)c1ccc(OC)c(NC(=O)c2cccs2)c1 | 25 |
| COC(=O)C1=CO[C@@H](O)C2C(CO)=CCC12 (stereo partly drawn) | 21.6 |
| C=C(C)Cn1cnc2cc(C)c(C)cc21 | 1.55 |
| CCOc1ccc(-c2nnc3ccc(SC)nn23)cc1 | -4.21 |
| Cc1c(CCO)c(=O)[nH]n1S(=O)(=O)c1cccc(C(F)(F)F)c1 | 9.25 |

| Compound | hERG current change (%, negative = inhibition) at 10uM [%] |
| --- | --- |
| Cc1ccc(C(=O)NCCCNC(=O)c2ccc(Cl)cc2)cn1 | 0.443 |
| CC(C)(C)c1ccc(-c2nnc(SCCN3C(=O)c4ccccc4C3=O)o2)cc1 | 6.33 |
| CCOCCCNC(=O)C(Cc1ccccc1)NC(=O)c1ccco1 (stereo not drawn) | -6.26 |
| Cc1cccc2nc(C(F)(F)F)nc(=O)n12 | 13.6 |
| CCC(=O)NCC(c1cccs1)N1CCOCC1.Cl (stereo not drawn) | 7.28 |
| CC(O)c1nc2cc([N+](=O)[O-])ccc2n1Cc1ccccc1 (stereo not drawn) | 1.79 |
| CCC(=O)c1ccc(OC(=O)C2CCN(C3=NS(=O)(=O)c4ccccc43)CC2)cc1 | 5.79 |
| Cc1nc(SCC(=O)Nc2nc3ccccc3s2)c(C#N)c(C)c1C | 18 |
| COc1ncnc2sc(-c3ccccc3)cc12 | 10.4 |
| CCCC(=O)Nc1nc(C(=O)OCC)cs1 | 7.78 |
| CCc1nnc(NC(=O)C2(C)COC(c3ccc(OC)cc3)OC2)s1 (stereo not drawn) | 10.1 |
| COc1ccc(CCNC(=O)CCn2c(SCC(=O)N3CCCC3)nc3ccccc3c2=O)cc1OC | 2.52 |
| CCCn1c(SCC(=O)Nc2cccc(C)n2)nnc1C(C)C | 15.8 |
| CC(=O)Oc1ccccc1C(=O)Nc1ccccc1 | 10.3 |
| CCC(CC)C(=O)Nc1ccc(-c2cn3cccnc3n2)cc1 | 4.74 |
| CCCOc1cccc(C(=O)N(Cc2ccc(OC)c(OC)c2)C2CCS(=O)(=O)C2)c1 (stereo not drawn) | -17.4 |
| Cc1onc(-c2ccccc2)c1-c1nnc(CN2CCN(S(=O)(=O)c3ccccc3)CC2)o1 | -33 |
| CCOC(=O)CCCc1c[nH]c2ccccc12 | -2.73 |
| CC(C)=CC(=O)N1CCC(n2nccc2NC(=O)CCc2ccccc2)CC1 | 10.3 |
